Some of the results follow.
What was measured:
Assay in all cases: glycan array binding signal (z-score within array); higher = stronger binding
Settings in all cases: glycan notation: IUPAC condensed, linker removed
[1] = biological target: Fuc(a1-2)[Gal(a1-4)]Gal(b1-4)GlcNAc
Method in brief: (§1)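 Glycan array binding is given as a within-array Z-score, which can be read as non-binding when negative. The arrays, 3228 of them, came from the Consortium for Functional Glycomics database and were retained only where the protein sequence was available. Z-scores were averaged across arrays of the same protein sequence at different concentrations or buffers and across linkers.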

[2] = biological target: Fuc(a1-2)[GalNAc(a1-3)]Gal
Method in brief: as §1

[3] = biological target: Fuc(a1-2)[GalNAc(a1-3)]Gal(b1-3)GalNAc(a1-3)[Fuc(a1-2)]Gal(b1-4)GlcNAc
Method in brief: as §1

[4] = biological target: Fuc(a1-2)[GalNAc(a1-3)]Gal(b1-3)GalNAc(b1-3)Gal(a1-4)Gal(b1-4)Glc
Method in brief: as §1

[5] = biological target: Fuc(a1-2)[GalNAc(a1-3)]Gal(b1-3)GlcNAc
Method in brief: as §1

[6] = biological target: Fuc(a1-2)[GalNAc(a1-3)]Gal(b1-3)GlcNAc(b1-2)Man(a1-3)[Fuc(a1-2)[GalNAc(a1-3)]Gal(b1-3)GlcNAc(b1-2)Man(a1-6)]Man(b1-4)GlcNAc(b1-4)GlcNAc
Method in brief: as §1

[7] = biological target: Fuc(a1-2)[GalNAc(a1-3)]Gal(b1-3)GlcNAc(b1-2)Man(a1-3)[Fuc(a1-2)[GalNAc(a1-3)]Gal(b1-3)GlcNAc(b1-2)Man(a1-6)]Man(b1-4)GlcNAc(b1-4)[Fuc(a1-6)]GlcNAc
Method in brief: as §1

[8] = biological target: Fuc(a1-2)[GalNAc(a1-3)]Gal(b1-3)GlcNAc(b1-3)GalNAc
Method in brief: as §1

[9] = biological target: Fuc(a1-2)[GalNAc(a1-3)]Gal(b1-3)GlcNAc(b1-6)GalNAc
Method in brief: as §1

[10] = biological target: Fuc(a1-2)[GalNAc(a1-3)]Gal(b1-4)Glc
Method in brief: as §1

[11] = biological target: Fuc(a1-2)[GalNAc(a1-3)]Gal(b1-4)GlcNAc
Method in brief: as §1

[12] = biological target: Fuc(a1-2)[GalNAc(a1-3)]Gal(b1-4)GlcNAc(b1-2)Man
Method in brief: as §1

[13] = biological target: Fuc(a1-2)[GalNAc(a1-3)]Gal(b1-4)GlcNAc(b1-2)Man(a1-3)[Fuc(a1-2)[GalNAc(a1-3)]Gal(b1-4)GlcNAc(b1-2)Man(a1-6)]Man(b1-4)GlcNAc(b1-4)GlcNAc
Method in brief: as §1

[14] = biological target: Fuc(a1-2)[GalNAc(a1-3)]Gal(b1-4)GlcNAc(b1-2)Man(a1-3)[Fuc(a1-2)[GalNAc(a1-3)]Gal(b1-4)GlcNAc(b1-2)Man(a1-6)]Man(b1-4)GlcNAc(b1-4)[Fuc(a1-6)]GlcNAc
Method in brief: as §1

[15] = biological target: Fuc(a1-2)[GalNAc(a1-3)]Gal(b1-4)GlcNAc(b1-3)Gal(b1-4)GlcNAc
Method in brief: as §1

[16] = biological target: Fuc(a1-2)[GalNAc(a1-3)]Gal(b1-4)GlcNAc(b1-3)Gal(b1-4)GlcNAc(b1-3)Gal(b1-4)GlcNAc
Method in brief: as §1

[17] = biological target: Fuc(a1-2)[GalNAc(a1-3)]Gal(b1-4)GlcNAc(b1-3)GalNAc
Method in brief: as §1

[18] = biological target: Fuc(a1-2)[GalNAc(a1-3)]Gal(b1-4)GlcNAc(b1-3)[Fuc(a1-2)[GalNAc(a1-3)]Gal(b1-4)GlcNAc(b1-6)]GalNAc
Method in brief: as §1

[19] = biological target: Fuc(a1-2)[GalNAc(a1-3)]Gal(b1-4)GlcNAc(b1-6)GalNAc
Method in brief: as §1

[20] = biological target: Fuc(a1-2)[GalNAc(a1-3)]Gal(b1-4)[Fuc(a1-3)]GlcNAc
Method in brief: as §1

[21] = biological target: Fuc(a1-2)[GalNAc(a1-3)]Gal(b1-4)[Fuc(a1-3)]GlcNAc(b1-3)GalNAc
Method in brief: as §1

[22] = biological target: Fuc(a1-2)[GalNAc(a1-4)]Gal(b1-4)GlcNAc
Method in brief: as §1

[23] = biological target: Fuc(a1-2)[GalNAc(b1-3)]Gal
Method in brief: as §1

Fuc(a1-3)GlcNAc = biological target: Fuc(a1-3)GlcNAc
Method in brief: as §1

[24] = biological target: Fuc(a1-3)[Gal(b1-4)]Glc6S
Method in brief: as §1

[25] = biological target: Fuc(a1-3)[Gal(b1-4)]GlcNAc
Method in brief: as §1

[26] = biological target: Fuc(a1-3)[Gal(b1-4)]GlcNAc(b1-2)Man
Method in brief: as §1

[27] = biological target: Fuc(a1-3)[Gal(b1-4)]GlcNAc(b1-2)Man(a1-3)[Fuc(a1-3)[Gal(b1-4)]GlcNAc(b1-2)Man(a1-6)]Man(b1-4)GlcNAc(b1-4)GlcNAc
Method in brief: as §1

[28] = biological target: Fuc(a1-3)[Gal(b1-4)]GlcNAc(b1-2)Man(a1-3)[Fuc(a1-3)[Gal(b1-4)]GlcNAc(b1-2)Man(a1-6)]Man(b1-4)GlcNAc(b1-4)[Fuc(a1-6)]GlcNAc
Method in brief: as §1

[29] = biological target: Fuc(a1-3)[Gal(b1-4)]GlcNAc(b1-3)Gal(b1-3)[Fuc(a1-4)]GlcNAc
Method in brief: as §1

[30] = biological target: Fuc(a1-3)[Gal(b1-4)]GlcNAc(b1-3)Gal(b1-4)[Fuc(a1-3)]GlcNAc
Method in brief: as §1

[31] = biological target: Fuc(a1-3)[Gal(b1-4)]GlcNAc(b1-3)Gal(b1-4)[Fuc(a1-3)]GlcNAc(b1-3)Gal(b1-4)[Fuc(a1-3)]GlcNAc
Method in brief: as §1

[32] = biological target: Fuc(a1-3)[Gal(b1-4)]GlcNAc(b1-3)GalNAc
Method in brief: as §1

[33] = biological target: Fuc(a1-3)[Gal(b1-4)]GlcNAc(b1-6)GalNAc
Method in brief: as §1

[34] = biological target: Fuc(a1-3)[Gal(b1-4)]GlcNAc(b1-6)[Gal(b1-3)GlcNAc(b1-3)]Gal(b1-4)Glc
Method in brief: as §1

[35] = biological target: Fuc(a1-3)[Gal(b1-4)]GlcNAc6S
Method in brief: as §1

[36] = biological target: Fuc(a1-3)[Gal3S(b1-4)]Glc
Method in brief: as §1

[37] = biological target: Fuc(a1-3)[Gal3S(b1-4)]GlcNAc
Method in brief: as §1

B1: Cohesin-hMARCO (Homo sapiens) (protein)
chain: LDDLDAVRIKVDTVNAKPGDTVRIPVRFSGIPSKGIANCDFVYSYDPNVLEIIEIEPGDIIVDPNPDKSFDTAVYPDRKIIVFLFAEDSGTGAYAITKDGVFATIVAKVKEGAPNGLSVIKFVEVGGFANNDLVEQKTQFFDGGANVGDTTEPATPTTPVTTPTTTDDLDAASVRIVGSSNRGRAEVYYSGTWGTICDDEWQNSDAIVFCRMLGYSKGRALYKVGAGTGQIWLDNVQCRGTESTLWSCTKNSWGHHDCSHEEDAGVECSVHHHHHH
B1 was tested, and the “glycan array binding signal (z-score)” value [1] was -0.286, the “glycan array binding signal (z-score)” value [2] was 0.232 and the “glycan array binding signal (z-score)” value [3] was -0.358. The “glycan array binding signal (z-score)” value [4] was -0.549, the “glycan array binding signal (z-score)” value [5] was -0.317 and the “glycan array binding signal (z-score)” value [6] was -0.18. The “glycan array binding signal (z-score)” value [7] was 0.063, the “glycan array binding signal (z-score)” value [8] was -0.468 and the “glycan array binding signal (z-score)” value [9] was 0.928. For the same binder, the “glycan array binding signal (z-score)” value [10] was -0.364, the “glycan array binding signal (z-score)” value [11] was -0.218 and the “glycan array binding signal (z-score)” value [12] was 0.245. For the same binder, the “glycan array binding signal (z-score)” value [13] was -0.299, the “glycan array binding signal (z-score)” value [14] was -0.462 and the “glycan array binding signal (z-score)” value [15] was -0.551. For the same binder, the “glycan array binding signal (z-score)” value [16] was -0.553, the “glycan array binding signal (z-score)” value [17] was -0.155 and the “glycan array binding signal (z-score)” value [18] was -0.055. For the same binder, the “glycan array binding signal (z-score)” value [19] was 2.17, the “glycan array binding signal (z-score)” value [20] was -0.056 and the “glycan array binding signal (z-score)” value [21] was 0.005. For the same binder, the “glycan array binding signal (z-score)” value [22] was 1.89, the “glycan array binding signal (z-score)” value [23] was 2.53 and the “glycan array binding signal (z-score)” value (Fuc(a1-3)GlcNAc) was 0.584. The “glycan array binding signal (z-score)” value [24] was -0.395, the “glycan array binding signal (z-score)” value [25] was 0.146 and the “glycan array binding signal (z-score)” value [26] was -0.39. The “glycan array binding signal (z-score)” value [27] was -0.32, the “glycan array binding signal (z-score)” value [28] was -0.419 and the “glycan array binding signal (z-score)” value [29] was -0.398. The “glycan array binding signal (z-score)” value [30] was -0.186, the “glycan array binding signal (z-score)” value [31] was -0.346 and the “glycan array binding signal (z-score)” value [32] was -0.156. The “glycan array binding signal (z-score)” value [33] was -0.03, the “glycan array binding signal (z-score)” value [34] was -0.6 and the “glycan array binding signal (z-score)” value [35] was -0.625. For the same binder, the “glycan array binding signal (z-score)” value [36] was -0.021 and the “glycan array binding signal (z-score)” value [37] was 0.507.

— the supplement of paper PMC8728848
